# Experimental data taken from PubChem BioAssay (NCATS).
# This is one part of the list. Further columns of the screen follow, without active or inactive calls. The list favours compounds with an active or inconclusive main result. The note in brackets gives the kind of curve behind each potency; many fits are weak.
# Experiment: Cell-based coincidence reporter assay to measure PMP22 gene transcription in S16 Pmp22-F2sN cells - Confirmatory screen (AID 1508646)
# Conditions: S16 Schwann cells Pmp22-F2sN, dual luciferase, 24 h; measured here: FLuc reporter channel
# In short: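 Coincidence reporter read as sequential FLuc then NLuc luminescence (Nano-Glo Dual-Luciferase, 10 min each). Engineered S16 Pmp22-F2sN Schwann cells, 500-1,000 per well in DMEM/10% FBS, were exposed to compounds for 24 h, 37C.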
# Tags give direction and shape of the fitted curve.
row,SMILES,AC50
1,O=C(Cn1ncc2c([nH]c3ccccc32)c1=O)Nc1cccc(C(F)(F)F)c1,"24.3 µM [falling, partial curve, poor fit]"
2,CCNc1nc(NC(C)(C)C)nc(Oc2ccc(=O)n(-c3ccccc3)n2)n1,"13.7 µM [falling, full curve, poor fit]"
3,O=C(NCCSc1c(-c2ccccc2)[nH]c2ccccc12)c1ccc(S(=O)(=O)N2CCOCC2)cc1,"15.3 µM [falling, single point]"
4,CC(=O)N1c2ccc(S(=O)(=O)NCC3CCC(C(=O)Nc4cc(C)ccc4C)CC3)cc2CC1C (stereo unspecified),"24.3 µM [falling, partial curve, poor fit]"
5,O=C(c1c2c(nc3ccccc13)C(=O)N(C1CCCCC1)C2)N1CCN(c2ccc(F)cc2)CC1,"48.5 µM [falling, single point]"
6,COc1ccc(NC(=O)N2CCc3c(sc4c3CCCC4)C2c2ccc(F)cc2)cc1 (stereo unspecified),"5.44 µM [falling, partial curve, poor fit]"
7,CCCCCCOc1ccc(/C=C/C(=O)Nc2sc3c(c2C(=O)OC)CCC3)cc1OC,"30.6 µM [rising, single point]"

# Same assay, conditions: S16 Schwann cells Pmp22-F2sN, dual luciferase, 24 h; measured here: NLuc reporter channel
row,SMILES,AC50
1,Cc1ccc(C)n1-c1nnc(N2CCCC(C(=O)Nc3ccccc3Br)C2)s1 (stereo unspecified),"27.3 µM [falling, single point]"
2,Cc1cc(C)cc(NC(=O)c2ccc3oc(=O)c(S(=O)(=O)c4ccc(F)cc4)cc3c2)c1,"27.3 µM [falling, partial curve, poor fit]"
3,COc1cc(C2C(C(=O)OC(C)C)=C(C)N=C3SCCC(=O)N32)ccc1OCc1ccccc1 (stereo unspecified),"4.32 µM [falling, single point]"
4,COc1ccc2nc(NC(=O)c3nc(S(=O)(=O)Cc4ccc(C)cc4)ncc3Cl)sc2c1,"30.6 µM [rising, partial curve, poor fit]"
5,Cc1ccc(-c2csc(-c3cc4c([nH]c3=O)CC(c3ccccc3)CC4=O)n2)cc1 (stereo unspecified),"4.32 µM [falling, full curve]"
6,COc1ccc(OC)c(NC(=O)c2c(NCc3sccc3C)sc3c2CCCCC3)c1,"30.6 µM [falling, partial curve]"
7,O=C(c1ccc2c(c1)N(Cc1ccc(F)cc1)C(=O)c1ccccc1S2(=O)=O)N1CCN(c2ccccn2)CC1,"27.3 µM [falling, partial curve]"
8,Cn1c(=O)n(-c2ccc3c(c2)OCO3)c2nc(-c3ccc(Cl)cc3)nc(C(N)=O)c21,"3.85 µM [falling, full curve, poor fit]"
9,Cc1cccc(/C=C(\C#N)c2nc3ccccc3c(=O)[nH]2)c1,"0.544 µM [rising, single point]"
10,COc1ccc(NCc2cc3cc4c(cc3n(CC(=O)Nc3ccc(F)cc3F)c2=O)OCO4)cc1,"43.2 µM [falling, single point]"
11,CCCc1oc2ccc(NS(=O)(=O)c3ccc(OC)cc3)cc2c1C(=O)OCC,"17.2 µM [falling, partial curve, poor fit]"
12,CCOc1ccccc1NC(=O)CSc1nc2c(oc3ccccc32)c(=O)n1Cc1ccco1,"9.68 µM [falling, partial curve, poor fit]"
13,COc1ccc(NC(=O)CCNS(=O)(=O)c2ccc3c(c2)CCN3C(=O)C2CC2)cc1Cl,"21.7 µM [falling, partial curve, poor fit]"
14,COc1ccc(N(C(=O)c2cc(OC)c(OC)c(OC)c2)S(=O)(=O)c2ccc(C)cc2)cc1,"2.43 µM [falling, full curve, poor fit]"
15,CCOC(=O)C1CCN(C(=O)c2ccc3c(=O)n4nc(Nc5ccccc5)sc4nc3c2)CC1,"3.06 µM [rising, partial curve, poor fit]"
16,CCN(c1ccccc1)S(=O)(=O)c1ccc2[nH]cc(C(=O)NCc3ccc(C)cc3)c(=O)c2c1,"43.2 µM [falling, single point]"
17,COc1ccc(-c2noc(CSc3nnc(C)n3-c3ccc(F)cc3)n2)cc1,"12.2 µM [falling, full curve, poor fit]"
18,O=C(Nc1ccc(Br)cc1F)N1CC=C(c2c[nH]c3ccccc23)CC1,"8.62 µM [falling, full curve]"
19,CCOC(=O)N1CCN(Cc2nc3cc(NC(=O)C(C)C)ccc3n2C(C)C)CC1,"6.85 µM [falling, full curve, poor fit]"
20,Cc1cccc(NC(=O)c2sc3nc4c(cc3c2N)CCCCCC4)c1C,"9.68 µM [falling, partial curve, poor fit]"
21,CCc1ccccc1NC(=O)c1ccc2nc(C(C)C)oc2c1,"7.69 µM [falling, partial curve, poor fit]"
22,CCCCN(Cc1cc2ccccc2[nH]c1=O)C(=O)c1cccc(Cl)c1,"8.62 µM [rising, partial curve, poor fit]"
23,CCOc1ccc(CCNc2ncnc3onc(C)c23)cc1OCC,"1.93 µM [falling, partial curve, poor fit]"
24,CCOc1cc(CNc2ccc(O)cc2)ccc1OCc1ccc(Cl)cc1,"6.11 µM [falling, partial curve]"
